Measurements: PubChem BioAssay AID2546 (National Center for Advancing Translational Sciences (NCATS), 2010)
Screen size: about 310,000 compounds; about 11,000 (3.5%) were called active. Inconclusive results, whose numbers are uncertain, are shown with a selection of clear calls. The call rests on the fitted dose curve; in most records, active means well fitted inhibition curve with a large enough effect; inconclusive means small, poorly fitted or top-dose-only effect, or effect the other way; inactive means flat fitted curve, though single readings scatter. No potency is given beside an inconclusive call; the fits are too rough.

assay: VP16 counterscreen qHTS for inhibitors of ROR gamma transcriptional activity; conditions: Drosophila S2 Gal4-VP16 UAS-luciferase, luminescence, 20 h; activity, negative = inhibition: at 53.6 µM (top of the series);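 further: Gal4-VP16 expression switched on by copper sulfate through the metallothionein promoter; nearly all actives have a fitted effect of over 50% in size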
On the % scale 0 is the no-effect control and ±100 the full control effect; potency means the concentration at half of the fitted maximal effect; tags describe the fitted curve by direction and shape.

SMILES	Potency	activity, negative = inhibition
O=[N+]([O-])c1cc(S(=O)(=O)N2CCCCC2)ccc1NCc1cccc(Cl)c1	inconclusive [activator, single point]	–
C/C(=N\NC(=O)c1c[nH]c2ccccc12)c1ccc(C)o1	–	inactive: -29.1%
CCCC1C(=O)Nc2ccccc2N1C(=O)c1ccc(C(C)(C)C)cc1 (stereo unspecified)	inconclusive [inhibitor, single point]	–
COc1ccc(-c2n[nH]c(=S)n2-c2ccccc2C)cc1	active: 6.31 µM	–
O=C(Nc1ccccc1)c1nnsc1S(=O)c1ccc(Cl)cc1 (stereo unspecified)	active: 4.47 µM	–
Clc1ccc2ncc(-c3nnnn3-c3ccccc3)c(-c3ccccc3)c2c1	–	inactive: -10.3%
N#Cc1c(NCCCO)nc(-c2ccco2)c2c1CCCC2	inconclusive [inhibitor, single point]	–
O=C1CCCCc2sc(Br)c([N+](=O)[O-])c2N1	inconclusive [inhibitor, single point]	–
CCCCOc1ccc(CNC(=S)N/N=C/c2ccc(OC)c(OC)c2)cc1	active: 2.51 µM	–
Cc1nn(-c2ccccc2)c(N2CCCC2)c1/C=N/NC(=O)c1cc2ccccc2cc1O	active: 3.55 µM	–
CCc1ccc(NC(=S)Nc2cc(C(=O)O)ccc2N2CC3CC(C2)c2cccc(=O)n2C3)cc1 (stereo unspecified)	inconclusive [inhibitor, single point]	–
CCOC(=O)c1c(C)[nH]c(C(=O)COC(=O)c2ccc(O)cc2)c1C	inconclusive [inhibitor, full curve]	–
Cc1cccc(OCCCCCN2CCOCC2)c1	inconclusive [activator, single point]	–
Cc1ccccc1CSCCNC(=O)CSCc1ccc([N+](=O)[O-])cc1	–	inactive: -3.02%
CCOC(=O)c1sc(NC(=S)NC(=O)CC(C)C)cc1C	inconclusive [inhibitor, single point]	–
COc1ccc(Oc2cccc(Cl)c2CNC(=O)c2ccccc2C(=O)O)cc1	–	inactive: -4.1%
Oc1ccc(N=Cc2cc(Br)c(N3CCOCC3)o2)cc1	inconclusive [inhibitor, single point]	–
COc1ccc(O)c(/C=N/NC(=O)c2ccc(OCc3cccc(Br)c3)cc2)c1	active: 4.47 µM	–
COc1ccc(S(=O)(=O)N(C)c2ccc(C(=O)N3CCCCC3)cc2)cc1OC	inconclusive [inhibitor, single point]	–
COc1ccccc1NS(=O)(=O)c1cc(NC(=O)c2cccs2)ccc1N1CCOCC1	–	inactive: -0.27%
N#CCC(=O)N1CCN(C=O)CC1	–	inactive: -0.757%
COc1ccc(C(=O)Oc2cccc3cccnc23)cc1[N+](=O)[O-]	active: 3.16 µM	–
COc1ccc(S(=O)(=O)N2CCN(C(=O)C3CCCCC3)CC2)cc1	inconclusive [activator, full curve, poor fit]	–
O=C(NC(=S)N1CCN(c2ccc(F)cc2)CC1)c1cccs1	active: 0.562 µM	–
O=C1/C(=C/c2cccs2)NC(=S)N1C1CC1	inconclusive [inhibitor, single point]	–
CCC(=O)Nc1ccc(NC(=O)/C=C/c2ccc(Cl)cc2)cc1	–	inactive: 0.229%

SMILES	Potency	activity, negative = inhibition
CC1CCN(C(=O)c2cc3nc(C4CC4)cc(C(F)(F)F)n3n2)CC1	inconclusive [inhibitor, partial curve, poor fit]	–
CC(NC(=O)CN(c1cccc(C(F)(F)F)c1)S(=O)(=O)c1ccc(Cl)c([N+](=O)[O-])c1)c1ccccc1 (stereo unspecified)	inconclusive [inhibitor, single point]	–
CCCCCCCCCCOC(=O)C[N+](C)(C)C/C=C(/C)Cl	active: 22.4 µM	–
CCOC(=O)C1=C(N)Oc2cc(O)ccc2C1c1cccnc1 (stereo unspecified)	–	inactive: -1.94%
CCOC(=O)c1ccc(N=C2NC(=O)CS2)cc1	–	inactive: -3.44%
O=S(=O)(Nc1ccc(O)c(Sc2nc3ccccc3s2)c1)c1cccc2ccccc12	active: 7.94 µM	–
COc1ccc(-c2cc(C(F)(F)F)nc(SCC(=O)NCc3cccs3)n2)cc1	inconclusive [inhibitor, single point]	–
Cc1nc2ccc(NC(=S)NCc3ccccc3)cc2nc1C	inconclusive [activator, single point]	–
COc1ccc(C(=O)NC2=NCCS2)c(OC)c1	inconclusive [inhibitor, single point]	–
CSc1cccc(NC(=O)NCc2cccc(CNC(=O)Nc3cccc(SC)c3)c2)c1	–	inactive: -0.113%
CCOC(=O)c1cnc(Nc2nc3ccccc3o2)nc1CSC(=S)N1CCCCC1	active: 1 µM	–
c1ccc(-c2noc(CCC3CCCC3)n2)cc1	inconclusive [activator, single point]	–
Cc1cccc(OCC(=O)NC(=S)Nc2ccccc2N2CCOCC2)c1	inconclusive [inhibitor, single point]	–
O=C(/C=C/c1ccc2c(c1)OCO2)NCCSCc1cccc(Cl)c1	inconclusive [inhibitor, single point]	–
CC(=O)c1ccc(NC(=O)c2ccc(C)c(Br)c2)cc1	inconclusive [inhibitor, single point]	–
C(=N\Nc1nc(-c2ccccc2)cs1)/c1ccco1	inconclusive [inhibitor, partial curve]	–
Cc1cc(C)c(OCC(=O)N(Cc2ccc(N(C)C)cc2)C2CCS(=O)(=O)C2)c(C)c1 (stereo unspecified)	–	inactive: -6.81%
CC1CC(=S)Nc2ccccc2N1Cc1ccccc1 (stereo unspecified)	active: 3.16 µM	–
O=C(/C=C/c1ccccc1)N1CCC(Cc2ccccc2)CC1	–	inactive: -23.9%
C/C(=N\NC(=O)C1(C)CC1(Br)Br)c1cccc(NC(=O)c2ccc(C)o2)c1 (stereo unspecified)	inconclusive [inhibitor, single point]	–
COc1ccccc1NC(=O)CN1CCC(C(=O)c2ccc(F)cc2)CC1	–	inactive: 0%
CCCn1c(NC(=O)c2ccccc2Br)nc2ccccc21	active: 2.82 µM	–
CC(=O)c1cccc(Nc2c3c(nc4ccccc24)CCC3)c1	–	inactive: 1.19%
S=C(NCCN1CCOCC1)N/N=C/c1c2ccccc2cc2ccccc12	inconclusive [inhibitor, single point]	–
O=C(Nc1cccc(O)c1)c1cc(-c2ccco2)on1	inconclusive [inhibitor, partial curve]	–
Cc1ccc(-c2cc(C(=O)NCc3ccccn3)c3ccccc3n2)cc1C	–	inactive: -28.6%

SMILES	Potency	activity, negative = inhibition
O=C(Nc1cc(S(=O)(=O)Nc2ccc(Cl)cc2)ccc1O)c1ccc(S(=O)(=O)N2CCCCCC2)cc1	inconclusive [inhibitor, single point]	–
Cc1ccc(NC2(c3nnnn3-c3c(C)cccc3C)CCCCC2)cc1	inconclusive [inhibitor, single point]	–
COc1ccc(-n2ncc3c(N(C)C4CCCCC4)ncnc32)cc1	active: 8.91 µM	–
Cc1cc(C(=O)Cn2ncc(Cl)c(Cl)c2=O)c(C)n1CC(F)(F)F	inconclusive [inhibitor, single point]	–
CCOc1ccc(NC(=O)Nc2cccs2)cc1	inconclusive [inhibitor, single point]	–
CS(=O)(=O)n1nc(-c2ccccc2)nc1NCc1ccco1	inconclusive [inhibitor, partial curve, poor fit]	–
Cc1ccc2nc(-c3ccccc3)c(CN3CCN(c4ccccc4F)CC3)n2c1	inconclusive [inhibitor, single point]	–
CN(C)Cc1ccccc1Sc1cccc2ccccc12	active: 14.1 µM	–
CCN(CC)c1ccc(/C=C2/C(=O)N(c3ccc([N+](=O)[O-])cc3)N=C2N2CCOCC2)cc1	–	inactive: -0.223%
Cc1c(Cl)c(-c2n[nH]c(=S)n2-c2ccccc2)nn1C	inconclusive [inhibitor, single point]	–
BrC(=C\c1ccccc1)/C=N/N1CCN(Cc2ccccc2)CC1	inconclusive [activator, partial curve]	–
CN(/N=C/c1ccc2c(c1)OCO2)c1ccccc1	active: 17.8 µM	–
Cc1csc2nc(CCNS(=O)(=O)c3ccc4c(c3)OCCO4)cn12	–	inactive: -2%
O=C(O)CCc1ccc(-c2ccc(Br)cc2)o1	inconclusive [inhibitor, single point]	–
Cn1nc([N+](=O)[O-])nc1Oc1ccccc1	–	inactive: -7.35%
O=C(c1ccccc1O)N1N=C(C(F)(F)F)CC1(O)c1ccc([N+](=O)[O-])cc1 (stereo unspecified)	active: 10 µM	–
COc1ccc(-c2n[nH]c(=S)n2-c2ccc3c(c2)OCCO3)cc1	inconclusive [inhibitor, single point]	–
COc1cc(C(CCN2CCCC(C)C2)c2c(OC)cc(OC)c3c(-c4ccccc4)cc(=O)oc23)cc(OC)c1OC (stereo unspecified)	inconclusive [inhibitor, partial curve]	–
Cc1cccc(CS(=O)(=O)c2ncc(Cl)c(C(=O)Nc3ccc(F)cc3)n2)c1	active: 3.16 µM	–
CCCCCCC(=O)N(O)C1CC(=O)N(c2ccc(Cl)cc2)C1=O (stereo unspecified)	inconclusive [inhibitor, single point]	–
CCOc1ccccc1NC(=O)CN(c1ccc(OC)cc1)S(=O)(=O)c1c(C)noc1C	–	inactive: -5.82%
O=C(Nc1ccccn1)c1cc2ccccc2o1	active: 6.31 µM	–
CCOC(=O)Cc1csc(NC(=S)NC(=O)c2ccc(C)cc2)n1	active: 8.91 µM	–
Cc1ccc2nc(SC(C)C(=O)N3CCCC3)[nH]c2c1 (stereo unspecified)	inconclusive [activator, single point]	–
